Reference: PubChem BioAssay AID588855 (National Center for Advancing Translational Sciences (NCATS), 2011)
Where “and” joins values, the source holds several entries; their conditions need not be identical. Equal values may be shown once. The campaign covered roughly 410,000 compounds. About 5,000 (1.2%) were called active. Inconclusive means that the source gave no clear call. Such entries were picked first, then a sample of the others. The call rests on the fitted dose curve; in most records, active means well fitted inhibition curve with a large enough effect; inconclusive means small, poorly fitted or top-dose-only effect; inactive means no such curve, though single readings can be large or run the other way. Potencies beside an inconclusive call are fits to weak or partial responses and may not hold up.

experiment: qHTS for Inhibitors of TGF-b; settings: HepG2 CAGA-GFP TGF-b/SMAD3 reporter, GFP fluorescence, 18 h, TGF-beta stimulated, 500 pg/mL final; series mostly up to 46.1 µM; further: nearly all actives have a fitted effect of over 65% in size
Procedure, shortened: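 Read-out: total well GFP (ex488/em500-530) summed from mean per-cell fluorescence. Cells: HEPG2 CAGA-GFP, 1% FBS DMEM, 18 h at 37 degrees C with 500 pg/mL final TGF-beta. Unstimulated wells served as the full-inhibition control; stimulated DMSO wells = 0%.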
Potency means the concentration at half of the fitted maximal effect; tags describe the fitted curve by direction and shape.

Row | Structure (SMILES) | Potency
1 | CN(C)c1ccc(C(CNC(=O)c2ccccc2F)N2CCc3ccccc32)cc1 (centres undefined) | inconclusive: 20 µM [inhibitor, single point]
2 | C=CCN(Cc1nc(-c2ccc(OC)cc2)no1)C(=O)c1ccc2c(c1)OCO2 | inconclusive: 35.5 µM [inhibitor, single point]
3 | O=C(NCCOc1ccccc1)c1cccc(S(=O)(=O)N2CCN(Cc3ccccc3)CC2)c1 | inconclusive: 35.5 µM [inhibitor, single point]
4 | COc1ccc(CN(C(=O)CSc2nnc(-c3c[nH]c4ccccc34)o2)c2ccc(F)cc2)cc1OC | inactive
5 | CCC1C/C(=C\c2cc(OC)c(OC)cc2OC)C(=O)/C(=C/c2cc(OC)c(OC)cc2OC)C1 (centres undefined) | inconclusive: 35.5 µM [inhibitor, single point]
6 | Cc1ccc(S(=O)(=O)N2CCN(C(=O)c3ccc(-n4cncn4)c([N+](=O)[O-])c3)CC2)c(C)c1 | inactive
7 | O=C(COC(=O)c1cccs1)NC1CCCC1 | inactive
8 | Cc1ccc(COC(=O)CCN=C2NS(=O)(=O)c3ccccc32)cc1 | inconclusive: 3.55 µM [inhibitor, partial curve, poor fit]
9 | Cc1ccc2c(c1)c1c(n2CC(O)Cn2nc(C)c(Br)c2C)CCCC1 (centres undefined) | inconclusive: 0.708 µM [inhibitor, partial curve, poor fit]
10 | CN(C)C=NC(=O)c1cc(C(=O)c2ccc(Cl)cc2)c[nH]1 | inconclusive: 3.55 µM [inhibitor, single point]
11 | Cc1ccc(-c2nc(Nc3cccc(O)c3)c3ccccc3n2)cc1 | inconclusive: 35.5 µM [inhibitor, single point]
12 | Cc1ccc2cccc(S(=O)(=O)Nc3ccc4c(c3)OCO4)c2n1 | inconclusive: 3.55 µM [inhibitor, single point]
13 | O=C1NC(c2ccc(-c3ccccc3[N+](=O)[O-])o2)C(C(=O)c2ccc(Cl)cc2)C(O)(C(F)(F)F)N1 (centres undefined) | inconclusive: 17.8 µM [inhibitor, partial curve, poor fit]
14 | COc1ccc(/C=C2/SC(=O)N(CC(O)Cn3c4ccccc4c4ccccc43)C2=O)cc1 (centres undefined) | inactive
15 | CN(C1CCCCC1)S(=O)(=O)c1ccc(NC(=O)C2CCCCC2)cc1 | inconclusive: 10 µM [inhibitor, partial curve]
16 | COC(=O)c1ccc2nc(-c3ccc(C#N)cc3)c(Cc3cccc(F)c3)n2c1 | inactive
17 | COc1cccc(-c2nc(CS(=O)(=O)CC(=O)Nc3cc(F)ccc3F)c(C)o2)c1 | inconclusive: 14.1 µM [inhibitor, single point] and inconclusive: 31.6 µM [inhibitor, single point]
18 | Cc1cccc(OCCCC(=O)NCCc2ccccc2)c1 | inconclusive: 35.5 µM [inhibitor, single point]
19 | Cc1ccc(NC(=O)CSc2nc3ccccc3c3nc(CCn4cncc4C)nn23)c(C)c1 | inconclusive: 6.31 µM [inhibitor, partial curve, poor fit]
20 | CN1CCN(C(=O)c2cccc(NS(=O)(=O)c3ccc(Br)cc3)c2)CC1 | inactive
21 | COc1cc(C(C(=O)NC(C)(C)C)N(Cc2ccccc2)C(=O)c2cnccn2)cc(OC)c1OC (centres undefined) | inactive
22 | CCN(CCCNC(=O)CSc1cc(=O)n(C)c2cc(Cl)ccc12)c1cccc(C)c1 | inconclusive: 20 µM [inhibitor, single point]

Row | Structure (SMILES) | Potency
23 | Cc1c2cnn(-c3ccccc3)c(=O)c2c(C)n1CC(=O)N1CCN(c2ccc(F)cc2)CC1 | inconclusive: 35.5 µM [inhibitor, single point]
24 | COCCN(C(=O)COC(=O)c1ccccc1Nc1ccccc1)c1c(N)n(Cc2ccccc2)c(=O)[nH]c1=O | active: 11.2 µM
25 | O=S(CC(O)(c1ccccc1)c1ccccc1)CC(O)(c1ccccc1)c1ccccc1 | inconclusive: 25.1 µM [inhibitor, single point]
26 | CCC(NC(=O)c1[nH]c(C)c(C(C)=O)c1C)c1ccc(Br)cc1 (centres undefined) | inconclusive: 20 µM [inhibitor, partial curve, poor fit]
27 | O=C(NCc1ccccc1)C1CCCN(C(=O)c2ccc(F)cc2)C1 (centres undefined) | inconclusive: 6.31 µM [inhibitor, single point]
28 | Cn1c(SCC(=O)N/N=C/c2ccc([N+](=O)[O-])s2)nnc1-c1ccccc1 | inconclusive: 11.2 µM [inhibitor, partial curve, poor fit]
29 | CCc1ccc(NC(=O)CSc2nc(NS(=O)(=O)c3ccccc3)cc(=O)[nH]2)cc1 | inconclusive: 15.8 µM [inhibitor, partial curve, poor fit]
30 | CCOc1ccc(S(=O)(=O)N2CCN(CN3C(=O)CC4(CCCC4)C3=O)CC2)cc1 | inactive
31 | CC(=O)n1cc(N(C(=O)CCl)c2ccc([N+](=O)[O-])cc2)c2ccccc21 | inconclusive: 17.8 µM [inhibitor, partial curve, poor fit]
32 | COc1cc(OC)cc(C(=O)Nc2nc(-c3nnn(-c4ccc(F)c(Cl)c4)c3C)ns2)c1 | inconclusive: 11.2 µM [inhibitor, single point]
33 | O=C(c1ccc(F)cc1)C1CCN(C(=O)c2ccc(Cl)cc2)CC1 | inconclusive: 22.4 µM [inhibitor, single point]
34 | NNC(=O)c1ccc(COc2ccc3ccccc3c2)o1 | inconclusive: 20 µM [inhibitor, single point]
35 | COc1cc(CCCN2C(=O)C(=O)NC[C@@H]2c2ccccc2)cc(OC)c1OC | inconclusive: 1.58 µM [inhibitor, partial curve]
36 | COC(=O)c1c(NC(=O)CCS(=O)(=O)c2ccccc2)sc2c1CCN(C)C2 | inconclusive: 35.5 µM [inhibitor, single point]
37 | COCCn1c(=NC(=O)c2cc(-c3cccs3)nc3ccccc23)sc2cc(S(N)(=O)=O)ccc21 | inconclusive: 35.5 µM [inhibitor, single point]
38 | CC1Sc2ccc(S(=O)(=O)NCCc3ccc(Cl)cc3)cc2NC1=O (centres undefined) | inconclusive: 25.1 µM [inhibitor, single point]
39 | CCN1CCN(CCCNC(=O)c2ccc3c(c2)NC(=O)c2ccccc2S3)CC1 | inactive
40 | COc1ccc(OC)c(C(=O)NC2CCSc3ccccc32)c1 (centres undefined) | inconclusive: 12.6 µM [inhibitor, partial curve]
41 | COc1ccc(-n2nc(C(=O)N3CCN(c4cccc(C(F)(F)F)c4)CC3)c3c4ccccc4n(C)c3c2=O)cc1Cl | inactive
42 | O=C(O)CCN1C(=O)/C(=C\c2ccc(-c3nc4ccccc4s3)o2)SC1=S | inactive
43 | O=C(c1cnn2c(C(F)F)cc(-c3ccccc3)nc12)N1CCN2CCCC2C1 (centres undefined) | inactive
44 | COc1ccc(S(=O)(=O)n2nc(-c3cc(OC)c(OC)c(OC)c3)cc2N)cc1OC | inactive

Row | Structure (SMILES) | Potency
45 | Cc1nc2ccccc2c(=O)n1/N=C/c1ccccc1O | inconclusive: 12.6 µM [inhibitor, single point]
46 | CCOC(=O)c1cnn(C)c1NC(=O)c1ccc(Cl)cc1Cl | inactive
47 | COc1ccc(N(CC(=O)NCc2ccccc2)S(C)(=O)=O)cc1 | inconclusive: 35.5 µM [inhibitor, single point]
48 | COc1cccc(-c2cnc(C(O)c3ccc(Cl)c(Cl)c3)[nH]2)c1 (centres undefined) | inconclusive: 35.5 µM [inhibitor, single point]
49 | CN(C(=O)c1oc(=O)c2ccccc2c1-c1ccccc1)c1cccc(Cl)c1 | inconclusive: 12.6 µM [inhibitor, single point]
50 | CCCCN(C(=O)Cc1ccc(S(=O)(=O)N2CCOCC2)s1)c1ccccc1 | inconclusive: 7.94 µM [inhibitor, partial curve]
51 | Cc1ccc(/C(C#N)=C\c2ccc(N3CCOCC3)o2)cc1 | inconclusive: 12.6 µM [inhibitor, partial curve, poor fit]
52 | O=C(N/N=C/c1cccc2ccccc12)c1cccs1 | inactive
53 | CCn1nc(C)c(/C=N\NC(=O)c2cccc(OC)c2)c1C | inconclusive: 6.31 µM [inhibitor, single point]
54 | Cc1ccccc1C(=O)c1cccn1CC(=O)NCCN1CCN(c2cccc(C)c2C)CC1 | inconclusive: 11.2 µM [inhibitor, single point]
55 | O=C(CSc1ccc(-c2cccs2)nn1)Nc1cccc(F)c1 | inconclusive: 5.62 µM [inhibitor, full curve, poor fit]
56 | Cc1c(C(=O)N2CCN(c3ccc(F)cc3)CC2)sc2nc(-c3ccccc3)cn12 | inactive
57 | CCOC(=O)C1=C(C)NC2=C(C(=O)c3ccccc32)C1c1ccc([N+](=O)[O-])o1 (centres undefined) | inconclusive: 25.1 µM [inhibitor, single point]
58 | COc1ccc(-c2cc(C)no2)cc1S(=O)(=O)N1CC(C)Oc2ccccc21 (centres undefined) | inactive
59 | NC1=NC(=Nc2cccc(S(=O)(=O)N3CCOCC3)c2)c2ccccc21 | inconclusive: 5.62 µM [inhibitor, single point]
60 | Cc1cccc(C)c1NC(=O)CNC(=O)c1ccc2ccccc2n1 | inactive
61 | COc1cc(NC(=O)c2ccccc2)c(OC)cc1NC(=O)CN1CCOCC1 | inactive
62 | CCOc1cc(/C=C2/NC(=S)NC2=O)ccc1OCc1ccc([N+](=O)[O-])cc1 | inconclusive: 3.55 µM [inhibitor, partial curve, poor fit]
63 | O=C(NCC1CCCO1)c1cc2c([nH]c3ccccc32)c(-c2ccc(F)cc2)n1 (centres undefined) | inconclusive: 17.8 µM [inhibitor, single point]
64 | C=CCOC(=O)C1=C(C)NC(C)=C(C(=O)OCC=C)C1/C=C/c1ccccc1 | inconclusive: 22.4 µM [inhibitor, single point]
